From PMC4336329 (PLoS ONE, 2015)
Screen size: about 310,000 compounds; about 2,200 (0.71%) showed an effect of 50% or more. The effect is printed as a negative number. Some of the results follow.

The compounds below were run against human ether-à-go-go-related gene (hERG) potassium channel (human, UniProt Q12809) (assay: primary screen, population patch clamp on CHO cells stably expressing hERG).
Sequence of human ether-à-go-go-related gene (hERG) potassium channel (Q12809 whole entry, looked up): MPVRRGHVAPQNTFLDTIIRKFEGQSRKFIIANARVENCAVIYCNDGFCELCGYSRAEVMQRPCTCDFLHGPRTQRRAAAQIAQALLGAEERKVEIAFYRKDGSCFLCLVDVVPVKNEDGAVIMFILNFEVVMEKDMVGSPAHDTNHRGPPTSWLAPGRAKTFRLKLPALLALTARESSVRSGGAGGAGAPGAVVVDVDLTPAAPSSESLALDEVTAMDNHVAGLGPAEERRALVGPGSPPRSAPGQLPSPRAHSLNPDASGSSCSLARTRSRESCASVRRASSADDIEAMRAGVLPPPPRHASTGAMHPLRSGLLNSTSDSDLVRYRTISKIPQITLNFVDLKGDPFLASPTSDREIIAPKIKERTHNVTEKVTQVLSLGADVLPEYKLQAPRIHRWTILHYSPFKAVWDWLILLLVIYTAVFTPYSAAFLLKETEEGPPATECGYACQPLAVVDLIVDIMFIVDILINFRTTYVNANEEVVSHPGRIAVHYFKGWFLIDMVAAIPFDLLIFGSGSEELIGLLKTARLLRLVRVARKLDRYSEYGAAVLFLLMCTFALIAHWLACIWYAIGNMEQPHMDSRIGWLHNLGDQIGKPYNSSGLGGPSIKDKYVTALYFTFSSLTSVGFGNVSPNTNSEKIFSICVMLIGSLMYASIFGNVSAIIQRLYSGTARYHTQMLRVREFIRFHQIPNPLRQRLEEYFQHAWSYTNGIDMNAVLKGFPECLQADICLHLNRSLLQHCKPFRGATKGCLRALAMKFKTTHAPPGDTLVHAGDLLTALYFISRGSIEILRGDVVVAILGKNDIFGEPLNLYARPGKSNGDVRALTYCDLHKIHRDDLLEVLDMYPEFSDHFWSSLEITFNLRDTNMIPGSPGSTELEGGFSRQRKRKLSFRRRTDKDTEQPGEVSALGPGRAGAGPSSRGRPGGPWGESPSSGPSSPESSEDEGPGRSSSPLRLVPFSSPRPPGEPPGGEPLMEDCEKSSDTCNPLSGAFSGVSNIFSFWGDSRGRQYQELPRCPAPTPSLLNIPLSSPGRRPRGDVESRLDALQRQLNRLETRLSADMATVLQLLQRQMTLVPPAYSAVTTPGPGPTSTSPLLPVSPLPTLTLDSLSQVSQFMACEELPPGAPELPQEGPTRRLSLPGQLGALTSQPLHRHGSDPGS

| SMILES | hERG current change (%, negative = inhibition) at 1uM [%] |
| --- | --- |
| Cc1ccc(-n2c(SCC(=O)Nc3cc(C)on3)nc3c(c2=O)SC(C)C3)cc1 (stereo not shown) | -3.67 |
| CCCCC(CC)C(=O)Nc1cc(C(=O)NCc2ccc(C)cc2)ccc1N1CCC2(CC1)CC(c1cccc(Br)c1)=NO2 (stereo not shown) | 19.6 |
| O=C(COc1ccc(Cl)cc1)NCc1n[nH]c(=O)c2ccccc12 | 11.3 |
| CCOc1ccccc1NC(=O)CSc1n[nH]c(N)n1 | 16.7 |
| CSc1cccc(NC(=O)c2ccc(NC3=NC4CS(=O)(=O)CC4S3)cc2)c1 (stereo not shown) | 7.67 |
| CN1CCN(C(=O)C2=C[C@H](C3CC3)C[C@H](OCc3ccc(CO)cc3)O2)CC1 | 11.4 |
| CC(C)CN(C(=O)c1ccc(S(=O)(=O)N2CCCC2)cc1)C1CCS(=O)(=O)C1 (stereo not shown) | 5.45 |
| CCOCC(=O)Nc1ccc(S(=O)(=O)N2CCOCC2)cc1 | 11.2 |
| O=[N+]([O-])c1ccc(Sc2ncc3ccccn23)nc1 | -3.11 |
| CC(C)(C)n1nc2c(c1NC(=O)c1ccc([N+](=O)[O-])cc1)CS(=O)(=O)C2 | 8.52 |
| CCCCC(=O)NN(C)c1nc(-c2ccccc2)nnc1C(F)(F)F | 7.5 |
| CSc1ccccc1NC(=O)CN(C1CCCCC1)S(C)(=O)=O | 16.6 |
| Cc1ccc(C(=O)N/C(=C/c2cccnc2)C(=O)O)cc1 | 10.3 |
| O=C(CNC(=O)c1ccc(-c2ccccc2)cc1)Nc1ccc(S(=O)(=O)Nc2ncccn2)cc1 | 8.28 |
| Cn1c(SCC(=O)N2CCc3ccccc3C2)nnc1-c1ccncc1 | 1.28 |
| N#Cc1c(-c2ccccc2)nc(N2CCN(Cc3ccccc3)CC2)[nH]c1=O | 8.95 |
| Cn1c(C(=O)N2COCC2(C)C)cc2c(=O)n3ccccc3nc21 | 6.95 |
| COc1cccc(CC(=O)OC(C)C(=O)Nc2ncc(Cl)cc2Cl)c1 (stereo not shown) | 8.54 |
| CC(C)[C@H](NS(=O)(=O)c1ccccc1)C(=O)OCC(=O)Nc1ccc2c(c1)OCO2 | 12.1 |
| O=C(Cc1cccs1)NCc1ccccc1F | -11.8 |
| COc1ccc(C(=O)ON=C2CCN(c3ccc([N+](=O)[O-])cc3)CC2)cc1 | -57.7 |
| O=S(=O)(c1ccc(F)cc1)N1CN2CCN(C2)C1 | 8.75 |

| SMILES | hERG current change (%, negative = inhibition) at 1uM [%] |
| --- | --- |
| Cc1nnc(SCC(=O)NCc2cccs2)n1-c1ccccc1 | 11.1 |
| CCn1cc([N+](=O)[O-])c(C(=O)N2N=C(c3ccc4ccccc4c3)CC2c2ccccc2O)n1 (stereo not shown) | 1.26 |
| C/C(=N\Nc1ccc(C(=O)O)cc1)c1ccc(Br)cc1.O=S(=O)(O)O | 17.6 |
| COc1ccc(NC(=O)CCN2C(=O)c3cccc([N+](=O)[O-])c3C2=O)cc1 | -1.59 |
| Nc1ccccc1-c1ccccc1N | 13.2 |
| COCCN(Cc1nc(C2(c3ccc(C)cc3)CCCC2)no1)C(C)C | 6.96 |
| Cc1ccccc1C(=O)NNC(=O)CCC(=O)Nc1cccc(Cl)c1C | 7.64 |
| COc1ccccc1NC(=O)COc1ccc(/C=N/NC(=O)CSCc2cc(C)cc(C)c2)cc1 | 14.5 |
| CSC1=NCCN1C(=O)c1ccc(S(=O)(=O)N2CCCC2)cc1 | 11.6 |
| O=C(Nc1nccs1)c1cc(-c2ccncc2)nc2ccccc12 | 17.4 |
| COc1cc(-c2cc(N)n(S(=O)(=O)c3ccccc3)n2)cc(OC)c1OC | 19.1 |
| CCCC(C)n1[nH]c(=O)c2c1NC(=O)CSC2c1ccc(OC)cc1 (stereo not shown) | 10.5 |
| CCN1CCN(CC(=O)N2N=C(c3ccc(OC)cc3)CC2c2ccc(OC)cc2)C(=O)C1=O (stereo not shown) | 8.58 |
| Cn1c(=O)c(-c2ccccc2)c(O)c2ccccc21 | 0.552 |
| COc1ccc(Cl)cc1NC(=O)CSc1nnc(C2CC2)n1C | 12.3 |
| COc1cc(CNCCc2ccc3c(c2)OCO3)cc(OC)c1OC.O=C(O)C(=O)O | 10.2 |
| CCCCSc1nnc(-c2ccc(NC(C)=O)cc2)n1C | 3.34 |
| C=C1CCN([C@@H](CC(C)C)C(=O)NN2CCOCC2)S(=O)(=O)c2ccccc21 | 9.07 |
| CC1=C(C(=O)OCc2ccccc2)C(c2cccnc2)n2ncnc2N1 (stereo not shown) | 17.3 |
| Cc1ccc(C(=O)Nc2ccc(N3CCOCC3)cc2)cc1 | 6.97 |
| O=C(CSCc1ccccc1)Nc1ccc2c(c1)C(=O)NC2=O | 24.6 |
